# Data taken from the supplement of paper PMC12217912.
# The list shows a part of the results. The full chains were built here from the parent and the listed change. Inactive controls read about 0.05.
# B1: TEV protease; numbered along this chain (parent)
# chain: MGESLFKGPRDYNPISSSICHLTNESDGHTTSLYGIGFGPFIITNKHLFRRNNGTLVVQSLHGVFKVKDTTTLQQHLVDGRDMIIIRMPKDFPPFPQKLKFREPQREERICLVTTNFQTKSMSSMVSDTSCTFPSGDGIFWKHWIQTKDGQCGSPLVSTRDGFIVGIHSASNFTNTNNYFTSVPKNFMELLTNQEAQQWVSGWRLNADSVLWGGHKVFMVKPEEPFQPVKEATQL
# Variants of: B1
# Experiment: raw area under fraction-flipped curve 0-4 h after induction (AUC4h, not background-subtracted), DNA-recorder readout of cleavage of the substrate (dimensionless); higher = more cleavage of the substrate by the protease variant
# Conditions: temperature: 34 °C; time window: 0-4 h after rhamnose induction
# 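Further: Bxb1 expression induced with 0.2% (w/v) L-rhamnose at OD600 near 0.5, cultures sampled hourly, flipped fraction per protease–substrate barcode pair counted by paired-end Illumina sequencing.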
Variant,area with substrate ENDYFQS,area with substrate ENEYFQS,area with substrate ENFYFQS,area with substrate ENGYFQS,area with substrate ENIYFQS,area with substrate ENNYFQS,area with substrate ENPYFQS,area with substrate ENQYFQS,area with substrate ENRYFQS,area with substrate ENSYFQS,area with substrate ENTYFQS,area with substrate ENVYFQS,area with substrate ENYYFQS,area with substrate ENHYFQS,area with substrate ENKYFQS,area with substrate ENMYFQS,area with substrate ENWYFQS,area with substrate ENCYFQS
W203A,0.0687,0.0555,0.0618,0.0673,0.093,0.0667,0.059,0.0675,0.0794,0.0595,0.0414,0.0646,0.0663,,,,,
S32E,0.0613,0.0681,0.0607,0.0253,0.087,,0.0757,0.0508,0.0548,0.0632,0.0627,0.0791,0.0576,0.0617,0.0537,0.0629,0.0036,
G80P,0.0614,,,,,,0.0626,,0.0681,,0.0498,0.0543,,0.0546,,,,
S16D,0.0627,0.0364,0.0613,0.0585,0.0913,0.0692,,0.0601,,0.0718,0.0668,0.0615,,0.0672,,0.0462,0.0436,
D128Y,0.064,0.0689,0.0657,,0.134,,0.046,,0.055,0.0616,,0.0843,,0.0648,0.0868,,,
D128K,0.057,0.0801,0.0583,0.0924,0.107,,0.0608,,0.0596,0.0663,0.0712,,,,,,,
F117N,0.0695,0.0609,0.0673,0.0565,0.0956,0.0513,0.0549,0.0579,0.065,0.0573,0.0531,,0.0603,,0.0205,0.0741,0.0072,
L112C,0.0655,0.0657,0.0518,0.0465,0.0689,0.0631,0.052,0.0584,,0.061,,,,0.0614,0.0795,0.0618,,
E224K,,,0.0693,0.0486,0.121,0.0652,0.0827,0.0669,0.0496,0.0687,0.0597,0.0827,0.0529,0.0655,0.0666,,,0.0712
E224Y,0.0536,0.0712,0.0605,0.0679,0.101,,0.0778,0.0573,0.0466,0.0642,,0.0721,0.0534,0.0554,,0.0608,,0.0633
P104F,0.0439,0.0514,0.054,,0.0493,0.0798,,,,0.0673,0.0543,,,0.0349,,,,
T192E,0.0613,0.059,0.0597,0.0628,,0.0641,0.0548,0.0585,,0.0566,0.061,0.0788,,,0.0644,0.0632,0.0668,0.0774
T192G,0.066,0.0592,,,,0.0514,,0.0582,,0.0615,0.0612,,0.0479,0.0942,,,,0.0688
R204K,0.0826,0.0638,0.0615,0.0636,0.107,0.0227,,0.0576,0.0514,0.0851,,0.0846,0.0557,,0.0503,,0.0522,0.07
M88D,0.0627,,,,,,,,,0.0459,0.0191,,,,,,,
K216H,0.0584,0.0585,0.0555,0.059,0.104,,,0.0685,0.0433,0.0615,0.061,0.0725,,0.0581,0.0705,,0.0606,0.0559
K216I,,,0.0634,0.0614,,,,,0.0571,0.0718,,,,,,,,0.0476

Variant,area with substrate ENDYFQS,area with substrate ENEYFQS,area with substrate ENFYFQS,area with substrate ENGYFQS,area with substrate ENIYFQS,area with substrate ENNYFQS,area with substrate ENPYFQS,area with substrate ENQYFQS,area with substrate ENRYFQS,area with substrate ENSYFQS,area with substrate ENTYFQS,area with substrate ENVYFQS,area with substrate ENYYFQS,area with substrate ENHYFQS,area with substrate ENKYFQS,area with substrate ENMYFQS,area with substrate ENWYFQS,area with substrate ENCYFQS
K216D,,,,,,,,,,,,,,0.0662,0.0531,,,0.0634
V200I,0.0501,,,,,0.0624,,0.0852,,0.0582,,0.0738,0.0808,,,,,
V200T,0.0884,,,,0.0885,0.0771,0.05,0.058,0.0704,0.0636,0.0678,0.0607,,,,,,0.0549
P93S,0.0651,,,,,0.0529,,,,0.079,,0.0802,,,0.0619,,0.0815,
N24D,0.0644,,0.0495,0.063,,0.0597,0.0573,0.0668,0.0638,0.0759,,0.057,,,,0.0718,0.0033,
V64L,0.0529,0.0596,0.0554,0.076,,0.0679,0.0347,0.0579,0.0643,0.0711,,0.0764,0.0678,0.0507,,,,
V64R,0.0728,0.0562,0.0749,,,,0.073,0.0557,0.0452,0.0544,,0.0736,,0.0852,0.0609,,0.0692,
V64Q,0.0438,,,,0.071,0.0506,0.0664,0.0593,,,0.0554,,0.0553,0.0557,0.0678,,0.082,
C152I,0.052,0.0616,,0.0682,0.0523,0.0641,,0.0659,0.0592,0.0559,0.0555,0.069,0.0362,0.0561,0.0589,,0.06,
C152L,0.0399,,,0.0805,0.0683,0.0598,0.06,0.057,0.0548,0.0591,0.055,,0.0539,0.0647,,,,
C152K,0.0633,,,0.0801,0.036,0.0581,0.0606,0.0613,,0.0678,0.0627,,,0.0605,,,0.0622,
D208V,0.0558,0.0748,0.0571,,0.0786,0.0515,,0.054,0.0607,0.0669,0.0635,0.0685,0.0578,,,,,
D208N,0.0673,0.0598,,0.0663,0.0986,,,,0.0535,,,0.0636,0.072,,,,,
A232K,,0.0653,0.0635,0.0645,,,,0.0502,,0.0647,,,,,,,,0.0761
A232G,0.058,0.0595,,,0.106,0.0641,0.057,0.0506,,0.0426,0.065,0.0816,,,,0.0914,0.0616,
A232M,0.0667,,0.0613,,,0.0601,0.0504,0.0665,,0.0826,,0.072,0.0668,0.06,,,,0.0684
